According to PMC10419975, “A Novel Betulinic Acid Analogue: Synthesis, Solubility, Antitumor Activity and Pharmacokinetic Study in Rats” (Molecules, 2023):
In brackets after ≈: the same amount, converted by molar mass. Like-named read-outs stand apart in the source and are kept apart here.

Legend:
[1] = Equilibrium solubility in different solvents (saturation shake-flask, HPLC); format: physicochemical; conditions: methanol, 20 °C, organic solvent or mixture, thermodynamic from solid
Experimental: The solubility was recorded at 20 °C in the present study. The solubility under equilibrium conditions was determined using the saturation shake-flask method with minor modifications. Briefly, an excess amount of SBE was added slowly to 1 mL of different solvents including methanol, ethanol, ethyl acetate, n-butanol, n-octanol, acetonitrile, petroleum ether as well as water. The mixture was then in crimp-sealed vials and was stirred vigorously at 20 °C for about 48 h. After that, the mixture was left to stand for an additional 24 h to reach equilibration, and then followed by centrifuging at 13,000 rpm for at least 10 min. 50 µL of the supernatant was transferred into a new tube, and evaporated to dryness under a slow nitrogen stream. The residue was then stored at −20 °C for further use or reconstituted in 1 mL of methanol. For the aqueous solution, 500 µL of the supernatant was transferred to the new tube, and the residue was reconstituted in 100 µL of methanol after dryness. After being centrifuged at 13,000 rpm for 10 min, a 20 μL aliquot was injected into the HPLC systems.

[2] = test system: 2774 (ovarian cancer cell line); test: In vitro cytotoxic activity, MTT assay; format: cell-based; conditions: 2774, MTT, 72 h
Experimental: (§1) The in vitro cytotoxic activities of SBE were evaluated on six different tumor cell lines including MPC2 (pancreatic cancer cell line), HT29 (colon cancer cell line), DU145 (prostate cancer cell line), NCI-H520 (lung cancer cell line), Hela (cervical cancer cell line) and 2774 (ovarian cancer cell line) using MTT assay. Cells were cultured in RPMI DMEM medium (containing 100 IU/mL G-penicillin, 100 µg/mL streptomycin and supplemented with 10% fetal calf serum) at 37 °C with 5% of CO2 in a CO2 incubator. In the MTT experiments, the cells were initially seeded in a 96-well plate with 0.1–0.2 mL (about 15 × 10^3 cells) of culture medium per well and allowed to attach overnight (about 24 h). Once attached, the cell confluence in each well reached approximately 50–60% when the drugs were added. Then the medium was replaced with fresh medium containing SBE or BA at different concentrations in four replicates. After incubating in the CO2 incubator for 3 days (about 72 h), 30 µL of MTT solution (3 mg/mL in culture medium) was added to each well and incubated for an additional 4 h. The medium was then aspirated and 150 µL of DMSO was added to each well to dissolve the formazan crystals thoroughly. The absorbance (OD value) was quantitated at 490 nm using a microplate reader (ELX800, Biotek, America). The relative growth inhibition rate (%) was calculated as (1 − mean absorbance of the sample/mean absorbance of the control) × 100%, considering the optical density of the control as 100%.

[3] = test system: DU145 (prostate cancer cell line); test: In vitro cytotoxic activity, MTT assay; format: cell-based; conditions: Homo sapiens, DU-145, 72 h
Experimental: as §1

[4] = test system: HT29 (colon cancer cell line); test: In vitro cytotoxic activity, MTT assay; format: cell-based; conditions: Homo sapiens, HT-29, 72 h
Experimental: as §1

[5] = test system: Hela (cervical cancer cell line); test: In vitro cytotoxic activity, MTT assay; format: cell-based; conditions: Homo sapiens, 72 h
Experimental: as §1

[6] = test system: MPC2 (pancreatic cancer cell line); test: In vitro cytotoxic activity, MTT assay; format: cell-based; conditions: 72 h
Experimental: as §1

[7] = test system: NCI-H520 (lung cancer cell line); test: In vitro cytotoxic activity, MTT assay; format: cell-based; conditions: Homo sapiens, 72 h
Experimental: as §1

[8] = Pharmacokinetic study in rats (i.v. and i.g.); format: in vivo; conditions: male, Wistar, plasma, rat; for AUC(0-t): read-out: AUC0–48 h
Experimental: Male Wistar rats (200 ± 20 g) used in the experiments were obtained from the Laboratory Animal Center of Jilin University (Changchun, China). After arrival, rats were acclimated to a 12-h light/dark cycle in a temperature-controlled environment with appropriate humidity for at least one week before treatment. For the intragastric (i.g.) administration groups, rats needed to fast for 8-12 h (overnight) before treatment while water was freely available. […] A series of blood samples (150-200 μL) from the jugular vein were collected into sodium heparin-containing tubes before and at 0, 0.08, 0.17, 0.33, 0.5, 1.0, 2.0, 4.0, 6.0, 8.0, 12.0, 24.0, 36.0 and 48.0 h time points after administration with the drugs. Then the plasma was separated by centrifugation at 4000× g for 15 min at 4 °C at once and stored frozen at -80 °C until analysis. All the animal handling procedures during the experiments were according to standard operating procedures approved by the institutional animal care and use committee at Northeast Forestry University. […] The oral bioavailability (F) is measured by comparing AUC0-∞ values after i.g. and i.v. administration according to the following equation [19, 28]:F = ([…].).

## C=C(C)[C@@H]1CC[C@]2(COC(=O)CCC(=O)O)CC[C@]3(C)C(CCC4[C@@]5(C)CC[C@H](O)C(C)(C)C5CC[C@]43C)C12 (some centres unmarked) [SBE, 28-O-succinyl betulin]
[1]
  solubility thermodynamic at 48 h: 2290 ± 190 µg/mL (≈ 4.22 mM)
[2]
  IC50: 20.3 ± 1.89 µM
[3]
  IC50: 30.8 ± 2.93 µM
[4]
  IC50: 18.8 ± 0.95 µM
[5]
  IC50: 19.3 ± 2.27 µM
[6]
  IC50: 18.7 ± 1.59 µM
[7]
  IC50: 22.5 ± 1.1 µM
[8]; iv, i.v. 5 mg/kg
  AUC(0-inf): 2730 ± 776 ng·h/mL
  AUC(0-t): 2470 ± 707 ng·h/mL
[8]; po, i.g. 200 mg/kg
  AUC(0-inf): 9720 ± 2910 ng·h/mL
  Cmax: 1040 ± 259 ng/mL
  AUC(0-t): 9390 ± 2900 ng·h/mL
[8]; iv, 5 mg/kg, i.v. 5 mg/kg
  MRT: 13.5 ± 3.74 h
  half-life: 9.77 ± 2.7 h
